According to the supplement of paper PMC8728848:
The list shows a part of the results.

Assays:
Test in all cases: glycan array binding signal (z-score within array); higher = stronger binding
Conditions in all cases: glycan notation: IUPAC condensed, linker removed
[1] = target: GlcNAc(b1-3)Gal(b1-4)GlcNAc(b1-2)Man(a1-3)[GlcNAc(b1-3)Gal(b1-4)GlcNAc(b1-2)Man(a1-6)]Man(b1-4)GlcNAc(b1-4)GlcNAc
In short: (§1)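 Glycan array binding is given as a within-array Z-score, which can be read as non-binding when negative. The arrays, 3228 of them, came from the Consortium for Functional Glycomics database and were retained only where the protein sequence was available. Z-scores were averaged across arrays of the same protein sequence at different concentrations or buffers and across linkers.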

[2] = target: GlcNAc(b1-3)Gal(b1-4)GlcNAc(b1-2)Man(a1-3)[GlcNAc(b1-3)Gal(b1-4)GlcNAc(b1-2)Man(a1-6)]Man(b1-4)GlcNAc(b1-4)[Fuc(a1-6)]GlcNAc
In short: as §1

[3] = target: GlcNAc(b1-3)Gal(b1-4)GlcNAc(b1-2)[GlcNAc(b1-3)Gal(b1-4)GlcNAc(b1-6)]Man(a1-6)[GlcNAc(b1-3)Gal(b1-4)GlcNAc(b1-2)Man(a1-3)]Man(b1-4)GlcNAc(b1-4)GlcNAc
In short: as §1

[4] = target: GlcNAc(b1-3)Gal(b1-4)GlcNAc(b1-3)Gal(b1-4)GlcNAc
In short: as §1

[5] = target: GlcNAc(b1-3)Gal(b1-4)GlcNAc(b1-3)Gal(b1-4)GlcNAc(b1-2)Man(a1-3)[GlcNAc(b1-3)Gal(b1-4)GlcNAc(b1-3)Gal(b1-4)GlcNAc(b1-2)Man(a1-6)]Man(b1-4)GlcNAc(b1-4)GlcNAc
In short: as §1

[6] = target: GlcNAc(b1-3)Gal(b1-4)GlcNAc(b1-3)Gal(b1-4)GlcNAc(b1-2)Man(a1-3)[GlcNAc(b1-3)Gal(b1-4)GlcNAc(b1-3)Gal(b1-4)GlcNAc(b1-2)Man(a1-6)]Man(b1-4)GlcNAc(b1-4)[Fuc(a1-6)]GlcNAc
In short: as §1

[7] = target: GlcNAc(b1-3)Gal(b1-4)GlcNAc(b1-3)Gal(b1-4)GlcNAc(b1-2)[GlcNAc(b1-3)Gal(b1-4)GlcNAc(b1-3)Gal(b1-4)GlcNAc(b1-6)]Man(a1-6)[GlcNAc(b1-3)Gal(b1-4)GlcNAc(b1-3)Gal(b1-4)GlcNAc(b1-2)Man(a1-3)]Man(b1-4)GlcNAc(b1-4)[Fuc(a1-6)]GlcNAc
In short: as §1

[8] = target: GlcNAc(b1-3)Gal(b1-4)GlcNAc(b1-3)Gal(b1-4)GlcNAc(b1-3)Gal(b1-4)GlcNAc(b1-2)Man(a1-3)[GlcNAc(b1-3)Gal(b1-4)GlcNAc(b1-3)Gal(b1-4)GlcNAc(b1-3)Gal(b1-4)GlcNAc(b1-2)Man(a1-6)]Man(b1-4)GlcNAc(b1-4)GlcNAc
In short: as §1

[9] = target: GlcNAc(b1-3)Gal(b1-4)GlcNAc(b1-3)Gal(b1-4)GlcNAc(b1-3)Gal(b1-4)GlcNAc(b1-2)Man(a1-3)[GlcNAc(b1-3)Gal(b1-4)GlcNAc(b1-3)Gal(b1-4)GlcNAc(b1-3)Gal(b1-4)GlcNAc(b1-2)Man(a1-6)]Man(b1-4)GlcNAc(b1-4)[Fuc(a1-6)]GlcNAc
In short: as §1

[10] = target: GlcNAc(b1-3)Gal(b1-4)GlcNAc(b1-3)Gal(b1-4)GlcNAc(b1-3)Gal(b1-4)GlcNAc(b1-2)[GlcNAc(b1-3)Gal(b1-4)GlcNAc(b1-3)Gal(b1-4)GlcNAc(b1-3)Gal(b1-4)GlcNAc(b1-6)]Man(a1-6)[GlcNAc(b1-3)Gal(b1-4)GlcNAc(b1-3)Gal(b1-4)GlcNAc(b1-3)Gal(b1-4)GlcNAc(b1-2)Man(a1-3)]Man(b1-4)GlcNAc(b1-4)[Fuc(a1-6)]GlcNAc
In short: as §1

[11] = target: GlcNAc(b1-3)Gal(b1-4)GlcNAc(b1-3)Gal(b1-4)GlcNAc(b1-3)Gal(b1-4)GlcNAc(b1-3)Gal(b1-4)GlcNAc(b1-2)Man(a1-3)[GlcNAc(b1-3)Gal(b1-4)GlcNAc(b1-3)Gal(b1-4)GlcNAc(b1-3)Gal(b1-4)GlcNAc(b1-3)Gal(b1-4)GlcNAc(b1-2)Man(a1-6)]Man(b1-4)GlcNAc(b1-4)GlcNAc
In short: as §1

[12] = target: GlcNAc(b1-3)Gal(b1-4)GlcNAc(b1-3)Gal(b1-4)GlcNAc(b1-3)Gal(b1-4)GlcNAc(b1-3)Gal(b1-4)GlcNAc(b1-2)Man(a1-3)[GlcNAc(b1-3)Gal(b1-4)GlcNAc(b1-3)Gal(b1-4)GlcNAc(b1-3)Gal(b1-4)GlcNAc(b1-3)Gal(b1-4)GlcNAc(b1-2)Man(a1-6)]Man(b1-4)GlcNAc(b1-4)[Fuc(a1-6)]GlcNAc
In short: as §1

[13] = target: GlcNAc(b1-3)Gal(b1-4)GlcNAc(b1-3)Gal(b1-4)GlcNAc(b1-3)Gal(b1-4)GlcNAc(b1-3)Gal(b1-4)GlcNAc(b1-2)[GlcNAc(b1-3)Gal(b1-4)GlcNAc(b1-3)Gal(b1-4)GlcNAc(b1-3)Gal(b1-4)GlcNAc(b1-3)Gal(b1-4)GlcNAc(b1-6)]Man(a1-6)[GlcNAc(b1-3)Gal(b1-4)GlcNAc(b1-3)Gal(b1-4)GlcNAc(b1-3)Gal(b1-4)GlcNAc(b1-3)Gal(b1-4)GlcNAc(b1-2)Man(a1-3)]Man(b1-4)GlcNAc(b1-4)[Fuc(a1-6)]GlcNAc
In short: as §1

[14] = target: GlcNAc(b1-3)Gal(b1-4)GlcNAc(b1-3)Gal(b1-4)GlcNAc(b1-3)GalNAc
In short: as §1

[15] = target: GlcNAc(b1-3)Gal(b1-4)GlcNAc(b1-3)GalNAc
In short: as §1

[16] = target: GlcNAc(b1-3)Gal(b1-4)GlcNAc(b1-3)[GlcNAc(b1-3)Gal(b1-4)GlcNAc(b1-3)]GalNAc
In short: as §1

[17] = target: GlcNAc(b1-3)Gal(b1-4)GlcNAc(b1-6)[Gal(b1-3)]GalNAc
In short: as §1

[18] = target: GlcNAc(b1-3)Gal(b1-4)GlcNAc(b1-6)[GlcNAc(b1-3)Gal(b1-3)]GalNAc
In short: as §1

[19] = target: GlcNAc(b1-3)Gal(b1-4)GlcNAc(b1-6)[GlcNAc(b1-3)]Gal(b1-4)GlcNAc
In short: as §1

B1: CC1G-11630 (Coprinopsis cinerea), A8P462 (protein)
chain: MTTEAKIKLKAVVYWELVFDYDNSSNTGEITQSYTVKISQTSTRSTFASEVSTTTIDTLTKNNQEVDVGASYGAISANVSASWEHSEEVNNMLEKTTQTSTEDTYTVETEETRSYTIGPGGMLSLFQKHFSGPGMHVAFDVFTTDLELAKERTEIDIDVDVEAIRFVREIRVVYTDIMSEAPGDHVREINGKNPDINYGFNGKFVWLVPEQTRKTAQALTNVEFVSQAESDDRYWDLAAGAGGSNRYLIPVYDTNNKDKIYELALWRSDSYITHDKVKAAGWSGTTGDINSGRGGTYLNLVWKTRHAY
For B1, the “glycan array binding signal (z-score)” value [1] was -0.302, the “glycan array binding signal (z-score)” value [2] was -0.213 and the “glycan array binding signal (z-score)” value [3] was 0.403. The “glycan array binding signal (z-score)” value [4] was -0.434, the “glycan array binding signal (z-score)” value [5] was 0.966 and the “glycan array binding signal (z-score)” value [6] was 0.444. The “glycan array binding signal (z-score)” value [7] was 0.215, the “glycan array binding signal (z-score)” value [8] was 1.07 and the “glycan array binding signal (z-score)” value [9] was 0.356. The “glycan array binding signal (z-score)” value [10] was -0.15, the “glycan array binding signal (z-score)” value [11] was 0.121 and the “glycan array binding signal (z-score)” value [12] was -0.379. For the same binder, the “glycan array binding signal (z-score)” value [13] was 5.85, the “glycan array binding signal (z-score)” value [14] was -0.179 and the “glycan array binding signal (z-score)” value [15] was -0.369. The “glycan array binding signal (z-score)” value [16] was -0.549, the “glycan array binding signal (z-score)” value [17] was -0.33 and the “glycan array binding signal (z-score)” value [18] was -0.296. For the same binder, the “glycan array binding signal (z-score)” value [19] was -0.443.
